# Data from paper PMC4336329 (PLoS ONE, 2015).
# The campaign covered roughly 310,000 compounds. About 2,200 (0.71%) showed an effect of 50% or more. The effect is printed as a negative number. Some of the results follow.
# Target: human ether-à-go-go-related gene (hERG) potassium channel (human, UniProt Q12809)
# Experiment: primary screen, population patch clamp on CHO cells stably expressing hERG
# human ether-à-go-go-related gene (hERG) potassium channel, sequence (Q12809 whole entry, looked up): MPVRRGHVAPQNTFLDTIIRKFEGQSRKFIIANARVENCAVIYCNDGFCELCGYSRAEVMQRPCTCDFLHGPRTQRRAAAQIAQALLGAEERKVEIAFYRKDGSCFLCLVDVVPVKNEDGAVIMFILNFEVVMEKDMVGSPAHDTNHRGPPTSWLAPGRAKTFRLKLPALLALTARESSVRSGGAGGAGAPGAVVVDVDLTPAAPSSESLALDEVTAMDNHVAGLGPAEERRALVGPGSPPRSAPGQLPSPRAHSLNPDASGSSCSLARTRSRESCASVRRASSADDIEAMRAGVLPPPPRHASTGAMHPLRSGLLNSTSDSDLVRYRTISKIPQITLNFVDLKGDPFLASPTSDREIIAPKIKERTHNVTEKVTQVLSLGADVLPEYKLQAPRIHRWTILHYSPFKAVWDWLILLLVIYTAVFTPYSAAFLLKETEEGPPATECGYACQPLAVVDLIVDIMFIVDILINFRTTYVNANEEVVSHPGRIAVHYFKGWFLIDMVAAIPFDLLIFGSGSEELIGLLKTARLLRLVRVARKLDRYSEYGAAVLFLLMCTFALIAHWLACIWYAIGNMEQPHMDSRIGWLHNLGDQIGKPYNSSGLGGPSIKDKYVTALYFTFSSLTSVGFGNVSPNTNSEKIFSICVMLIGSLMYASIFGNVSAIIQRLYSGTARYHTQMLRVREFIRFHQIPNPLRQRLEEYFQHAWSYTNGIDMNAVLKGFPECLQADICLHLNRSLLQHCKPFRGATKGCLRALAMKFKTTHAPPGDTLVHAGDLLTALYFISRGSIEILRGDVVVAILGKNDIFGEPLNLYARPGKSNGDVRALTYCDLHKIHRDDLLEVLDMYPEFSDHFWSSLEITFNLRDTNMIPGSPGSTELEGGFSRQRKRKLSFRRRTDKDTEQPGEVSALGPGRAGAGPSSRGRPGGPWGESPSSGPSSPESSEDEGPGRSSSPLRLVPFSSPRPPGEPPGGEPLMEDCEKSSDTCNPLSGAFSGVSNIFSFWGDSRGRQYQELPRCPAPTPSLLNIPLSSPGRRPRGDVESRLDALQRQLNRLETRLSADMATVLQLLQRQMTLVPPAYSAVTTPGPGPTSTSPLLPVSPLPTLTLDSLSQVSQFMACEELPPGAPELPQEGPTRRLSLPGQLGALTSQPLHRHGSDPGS
row,SMILES,"hERG current change (%, negative = inhibition) at 1uM"
1,COCCNC(=O)Cc1cn(C)c2ccccc12,5.72%
2,O=C(O)Cc1ccc(C(=O)c2ccccc2)s1,12.9%
3,Cc1ccc(NC(=O)CCC(=O)N/N=C/c2cccs2)cc1,6.76%
4,CCOc1ccc(/C(O)=C2/C(=O)C(=O)N(CCCN3CCOCC3)C2c2ccc(F)cc2)cc1C (stereo not drawn),16.5%
5,COc1ccnc(N=CNOCc2cccc(Cl)c2Cl)c1C#N,-4.58%
6,COc1ccc(-n2c(C)cc(C(=O)COc3ccc(-n4cnnn4)cc3)c2C)cc1,6.98%
7,O=C1NCCc2cc3c(cc21)OCO3,5.09%
8,O=C(O)c1ccc(N2C(=O)CC(SC(=NCc3ccc4c(c3)OCO4)Nc3ccccc3)C2=O)cc1 (stereo not drawn),17.4%
9,O=C(OCC(=O)N1CCCC1)c1ccc(Cl)nc1,9.58%
10,COc1ccc(NC(=O)CCNS(=O)(=O)c2cc(Br)cnc2N)c(OC)c1,12.3%
11,CC(=O)c1cccc(OCC(O)CN2CCN(C(=O)c3ccco3)CC2)c1 (stereo not drawn),-5.4%
12,CCOc1cccc(C(=O)Nc2nnc(-c3cccs3)s2)c1,-0.832%
13,CCCNC(=O)CN(Cc1ccco1)S(=O)(=O)c1ccc(OCC)cc1,3.87%
14,CCCN(C(=O)c1cc(S(=O)(=O)N(C)c2ccc(OCC)cc2)ccc1C)C1CCS(=O)(=O)C1 (stereo not drawn),7.21%
15,COc1ccc(/C=C/C2=NC(=C\N(C)C)/C(=O)O2)cc1,-8.43%
16,CC1CCCN(S(=O)(=O)c2ccc(Br)s2)C1 (stereo not drawn),2.18%
17,O=C(C1CC(=O)N(C2CCCC2)C1)N1CCN(c2ccc(F)cc2)CC1 (stereo not drawn),6.46%
18,O=C(Nc1ccc2c(c1)OCCO2)c1ccc(Cl)c(S(=O)(=O)N2CCOCC2)c1,-0.604%
19,CCC/C=C(\CCC)C(NS(=O)(=O)c1ccc(C(F)(F)F)cc1)c1ccccc1 (stereo not drawn),16%
20,CCn1c(=O)c(NC(=O)c2ccccc2)c2n(c1=S)CCCCC2,11%
21,CCCN(CCC)C(=O)C1CCCN1S(=O)(=O)c1cccc2nsnc12 (stereo not drawn),15.2%
22,COc1ccc(NC(=O)CC#N)cc1OC,10.1%
23,CCOC(=O)Cc1csc(NC(=O)C(C)Oc2ccc3c(C)cc(=O)oc3c2)n1 (stereo not drawn),11.5%

row,SMILES,"hERG current change (%, negative = inhibition) at 1uM"
1,CC1(C)NC(=O)N(CCCOc2ccccc2Br)C1=O,8.49%
2,COc1ccccc1NC(=O)c1ccc(CSc2ncccn2)cc1,18.1%
3,Cc1ccccc1OCc1nnc(SCC(=O)Nc2ccc3nc(SCC(=O)Nc4ccccc4)sc3c2)n1C,9.17%
4,C=CCNC(=S)NNc1nc2c(c(=O)[nH]1)C1(CCCCC1)Cc1ccccc1-2,10.8%
5,CC(NC(=O)C1(C)CC1(Br)Br)C(C)(C)C (stereo not drawn),3.68%
6,O=c1[nH]n2c(=O)c3c([nH]c2c1N=Nc1cccc(Cl)c1)CCCC3,10.3%
7,Cc1cccc(C(=O)Nc2ccc(C(=O)N/N=C/c3ccc4c(c3)OCO4)cc2)c1,12.1%
8,CCCCOc1ccccc1C(=O)NCCCCCC(=O)O,10.8%
9,Cc1ccc(NC(=S)NC(C)(C)C)c([N+](=O)[O-])c1,8.47%
10,O=C(NCCc1c[nH]c2ccccc12)C(=O)NCC1OCCN1S(=O)(=O)c1ccc(Cl)cc1 (stereo not drawn),3.74%
11,N#C/C(=C\c1ccc(OC(=O)c2cccs2)cc1)c1nc2ccccc2[nH]1,15%
12,O=C(Nc1ccccc1C(=O)O)c1ccc2ccccc2n1,15.1%
13,CCOc1ccc(/C=C/C(=O)NCc2ccccc2)cc1,1.74%
14,Cc1ccc(NC(=O)C(C)N2C(=O)c3ccccc3C2=O)cc1 (stereo not drawn),11%
15,CCOc1ccccc1-c1nc(CN2CCCN(C(=O)c3ccco3)CC2)c(C)o1,15.3%
16,Cc1ccc(C(=O)N/C(=C/c2cccs2)C(=O)NCCc2c[nH]c3ccccc23)cc1,-0.996%
17,CCN(CC)CCCOC(=O)C(OC)(c1ccccc1)c1ccccc1.Cl,-2.73%
18,COc1ccccc1C(=O)NCC(=O)N/N=C/c1ccncc1,7.02%
19,CC(=O)c1cccc(OCC(=O)N2CCN(c3ccc(C(F)(F)F)cn3)CC2)c1,1.99%
20,COc1ccccc1CNC(=O)C1CCN(S(=O)(=O)c2c(C)noc2C)CC1,9.73%
21,CCOc1ccc2ccccc2c1/C=N/n1cncn1,-3.94%
22,CCCc1nc2ccc(NC(=O)NCCC(=O)OCC)cc2c(=O)n1Cc1ccc(Cl)cc1,10.3%
